PubChem BioAssay AID1476 (National Center for Advancing Translational Sciences (NCATS), 2009)
Hit rate of the full screen: of about 200,000 compounds, about 4,500 (2.2%) were called active. Inconclusive means that the source gave no clear call. Such entries were picked first, then a sample of the others. Calls come from the whole dose curve; as a rule, active = well fitted inhibition curve with a large enough effect; inconclusive = small, poorly fitted or top-dose-only effect, or effect the other way; inactive = flat fitted curve, though single readings scatter. Potencies of inconclusive entries are doubtful fits and often do not repeat.

Target: Cruzipain (Trypanosoma cruzi) (UniProt P25779)
Sequence of UniProt P25779 (P25779 whole entry, looked up): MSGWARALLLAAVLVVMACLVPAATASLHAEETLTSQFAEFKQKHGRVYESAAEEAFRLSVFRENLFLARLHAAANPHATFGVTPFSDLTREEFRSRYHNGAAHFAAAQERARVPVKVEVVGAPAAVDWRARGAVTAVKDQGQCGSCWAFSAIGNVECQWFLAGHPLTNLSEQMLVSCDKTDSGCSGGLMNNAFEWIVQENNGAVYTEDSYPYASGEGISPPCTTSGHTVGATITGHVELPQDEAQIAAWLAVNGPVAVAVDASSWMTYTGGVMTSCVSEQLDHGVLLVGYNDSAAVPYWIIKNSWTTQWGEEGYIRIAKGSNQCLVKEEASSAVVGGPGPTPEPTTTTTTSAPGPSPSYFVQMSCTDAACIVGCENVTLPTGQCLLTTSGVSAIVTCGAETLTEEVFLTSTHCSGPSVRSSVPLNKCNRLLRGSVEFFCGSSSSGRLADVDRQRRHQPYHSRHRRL
Assay: qHTS Assay for Promiscuous and Specific Inhibitors of Cruzain (without detergent); note: nearly all actives have a fitted effect of over 40% in size;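 for max response, negative = inhibition: plate controls were enzyme without inhibitor for no effect and buffer without enzyme for full effect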
Details: purified cruzain, Z-FR-AMC fluorescence, no detergent
Summary of the method: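 Detergent-free condition (0.00005% Triton X-100) in acetate buffer pH 5.5 with DTT. 1.5 nM enzyme and compound were pre-mixed 15 min, then 2 uM Z-FR-AMC substrate added; reaction progress from fluorescence change between first and third reads (60 s).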
Potency is the fitted concentration of half-maximal effect; tags give direction and shape of the fitted curve.

SMILES	Potency	max response, negative = inhibition
C=CCn1c(SCn2nnc3ccccc3c2=O)nc2scc(-c3cccs3)c2c1=O	active: 7.94 µM	–
CCOC(=O)N1CCN(C(=O)C(C)N(c2ccc(Oc3ccccc3)cc2)S(C)(=O)=O)CC1 (configuration not stated)	inconclusive: 31.6 µM [activator, partial curve]	–
O=C(NC1CCCCC1)c1ccc2c(c1)N(Cc1cccc(Cl)c1)C(=O)c1ccccc1S2(=O)=O	inconclusive: 39.8 µM [inhibitor, single point]	–
CCn1nc(NC(=O)c2ccncc2)c2cc3cc(C)ccc3nc21	inconclusive: 39.8 µM [activator, single point]	–
Cc1nc(S(=O)(=O)c2ccc(Cl)cc2)c(NCc2ccccc2)o1	active: 31.6 µM	–
N#C/C(=C\c1cccc(NC(=O)c2ccccc2Cl)c1)C(=O)NCCc1ccccc1	inconclusive: 39.8 µM [inhibitor, single point]	–
Cc1cnc(NC(=O)CN(C)S(=O)(=O)c2ccc(Cl)cc2)s1	inconclusive: 39.8 µM [inhibitor, single point]	–
CSc1nc2ccc(NS(=O)(=O)c3cccc(Cl)c3Cl)cc2s1	inconclusive: 25.1 µM [inhibitor, single point]	–
O=C(CN1CCN(c2ncc(C(F)(F)F)cc2Cl)CC1)N1CCN(c2ncc(C(F)(F)F)cc2Cl)CC1	inconclusive: 20 µM [activator, single point]	–
C[C@@H](/C=C\c1cccc(Oc2ccc(F)cc2)c1)N(O)C(N)=O	inconclusive: 39.8 µM [activator, single point]	–
O=C(C1=C[C@@H]2[C@H]3C(=O)N(c4ccccc4)C(=O)[C@H]3[C@@H](C(=O)c3ccc(Cl)cc3)N2C=C1)c1ccccc1	inconclusive: 12.6 µM [inhibitor, partial curve]	–
CCOC(=O)c1ccc(-n2c(CCC(=O)O)ccc2-c2ccccc2)cc1O	inconclusive: 39.8 µM [activator, single point]	–
O=C(CSc1ncnc2c1cnn2-c1ccc(Cl)cc1)NCc1ccc2c(c1)OCO2	active: 12.6 µM	–
CC(C)CCNc1nc(Nc2ccccc2)c2cnn(C)c2n1	inconclusive: 39.8 µM [activator, single point]	–
Cc1ccc(NC(=O)c2cc3c(s2)CCCC3)cc1S(=O)(=O)Nc1ccccc1Cl	inconclusive: 15.8 µM [inhibitor, single point]	–
CCc1ccccc1S(=O)(=O)Cc1ccc(C(=O)NCCc2ccc(Cl)cc2)o1	–	inactive: 3.88%
COc1ccc2c(c1)O[C@H](c1ccc3c(c1)OCO3)[C@@H](OC(=O)NCCc1ccc(OC)c(OC)c1)C2=O	inconclusive: 31.6 µM [inhibitor, single point]	–
